These are yes or no findings as the source states them, for the method shown. Binding seen in cells or lysates may run through a third protein. Some binding calls cover weakened binding; strength is not graded here.
T1: DPPA4 (human (endogenous in NT2)) (UniProt Q7L190)
T1 sequence: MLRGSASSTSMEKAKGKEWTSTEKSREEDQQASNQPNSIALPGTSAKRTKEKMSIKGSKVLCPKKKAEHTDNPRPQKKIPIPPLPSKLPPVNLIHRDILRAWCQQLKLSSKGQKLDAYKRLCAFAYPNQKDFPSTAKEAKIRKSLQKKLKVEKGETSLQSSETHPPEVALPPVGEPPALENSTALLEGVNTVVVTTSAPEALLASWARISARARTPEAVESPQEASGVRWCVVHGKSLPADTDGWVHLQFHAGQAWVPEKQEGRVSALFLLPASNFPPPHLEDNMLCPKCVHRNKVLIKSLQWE

By UniProt entry, the sequences of proteins in these tests, tags left out.
UniProt Q9BSM1: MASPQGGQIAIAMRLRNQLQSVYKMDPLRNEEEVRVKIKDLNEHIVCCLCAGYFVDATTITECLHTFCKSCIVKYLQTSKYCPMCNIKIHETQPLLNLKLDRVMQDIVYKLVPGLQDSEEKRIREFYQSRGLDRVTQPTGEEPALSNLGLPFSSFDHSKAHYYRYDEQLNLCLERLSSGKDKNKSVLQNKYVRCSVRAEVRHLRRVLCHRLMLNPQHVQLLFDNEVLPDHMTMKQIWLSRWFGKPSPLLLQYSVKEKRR
UniProt Q6W2J9: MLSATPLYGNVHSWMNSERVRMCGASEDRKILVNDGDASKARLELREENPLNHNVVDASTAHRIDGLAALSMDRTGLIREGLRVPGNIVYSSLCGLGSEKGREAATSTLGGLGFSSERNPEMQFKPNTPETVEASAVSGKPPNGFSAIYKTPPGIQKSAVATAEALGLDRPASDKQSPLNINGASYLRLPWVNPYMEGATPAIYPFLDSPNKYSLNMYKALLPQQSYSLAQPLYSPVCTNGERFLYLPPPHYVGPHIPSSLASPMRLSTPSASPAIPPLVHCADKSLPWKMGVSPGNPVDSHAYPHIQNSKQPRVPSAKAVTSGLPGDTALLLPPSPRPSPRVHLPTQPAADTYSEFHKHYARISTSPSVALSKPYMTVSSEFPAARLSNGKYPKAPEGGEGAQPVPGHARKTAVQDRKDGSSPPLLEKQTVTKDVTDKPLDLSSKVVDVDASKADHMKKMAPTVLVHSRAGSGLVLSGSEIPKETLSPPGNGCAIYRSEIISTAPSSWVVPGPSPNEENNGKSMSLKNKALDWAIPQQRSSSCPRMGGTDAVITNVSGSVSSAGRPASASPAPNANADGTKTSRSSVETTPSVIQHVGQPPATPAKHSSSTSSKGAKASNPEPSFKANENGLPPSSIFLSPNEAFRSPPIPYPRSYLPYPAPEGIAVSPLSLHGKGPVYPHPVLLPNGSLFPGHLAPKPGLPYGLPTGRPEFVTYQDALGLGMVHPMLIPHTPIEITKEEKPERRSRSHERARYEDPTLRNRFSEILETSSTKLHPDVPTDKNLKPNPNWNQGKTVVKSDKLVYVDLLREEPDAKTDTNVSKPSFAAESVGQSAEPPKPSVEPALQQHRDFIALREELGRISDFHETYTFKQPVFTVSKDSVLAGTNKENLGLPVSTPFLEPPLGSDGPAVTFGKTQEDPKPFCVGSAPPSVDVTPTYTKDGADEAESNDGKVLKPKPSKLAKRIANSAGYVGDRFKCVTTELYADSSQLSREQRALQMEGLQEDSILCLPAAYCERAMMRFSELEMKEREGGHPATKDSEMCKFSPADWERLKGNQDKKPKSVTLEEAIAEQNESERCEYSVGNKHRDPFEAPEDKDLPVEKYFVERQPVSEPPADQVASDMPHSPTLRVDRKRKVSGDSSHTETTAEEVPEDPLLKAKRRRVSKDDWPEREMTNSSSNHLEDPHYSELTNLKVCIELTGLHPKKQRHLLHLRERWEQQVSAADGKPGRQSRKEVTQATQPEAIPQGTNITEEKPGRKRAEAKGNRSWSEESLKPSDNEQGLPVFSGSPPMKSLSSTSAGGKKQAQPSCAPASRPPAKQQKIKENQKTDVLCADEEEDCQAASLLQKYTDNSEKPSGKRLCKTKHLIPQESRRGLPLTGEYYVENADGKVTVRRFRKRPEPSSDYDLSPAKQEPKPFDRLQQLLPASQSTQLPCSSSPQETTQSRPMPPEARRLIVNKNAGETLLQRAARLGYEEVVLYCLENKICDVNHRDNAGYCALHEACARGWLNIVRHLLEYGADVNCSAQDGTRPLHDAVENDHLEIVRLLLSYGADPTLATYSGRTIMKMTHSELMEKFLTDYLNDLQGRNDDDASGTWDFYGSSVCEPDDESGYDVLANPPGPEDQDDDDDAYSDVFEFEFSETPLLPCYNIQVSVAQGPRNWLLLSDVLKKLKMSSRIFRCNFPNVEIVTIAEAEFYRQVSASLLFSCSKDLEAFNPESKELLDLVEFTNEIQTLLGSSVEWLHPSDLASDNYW
UniProt P35226: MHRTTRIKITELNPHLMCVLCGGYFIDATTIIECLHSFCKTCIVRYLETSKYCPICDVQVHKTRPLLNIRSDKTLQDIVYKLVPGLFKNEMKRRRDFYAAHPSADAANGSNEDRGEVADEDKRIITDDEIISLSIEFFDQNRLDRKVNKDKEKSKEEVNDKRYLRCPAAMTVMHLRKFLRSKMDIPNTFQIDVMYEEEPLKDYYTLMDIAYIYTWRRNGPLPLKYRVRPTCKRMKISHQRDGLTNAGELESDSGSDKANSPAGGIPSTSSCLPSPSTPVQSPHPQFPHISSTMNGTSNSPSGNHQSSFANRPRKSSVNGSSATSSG
UniProt Q9H9S0: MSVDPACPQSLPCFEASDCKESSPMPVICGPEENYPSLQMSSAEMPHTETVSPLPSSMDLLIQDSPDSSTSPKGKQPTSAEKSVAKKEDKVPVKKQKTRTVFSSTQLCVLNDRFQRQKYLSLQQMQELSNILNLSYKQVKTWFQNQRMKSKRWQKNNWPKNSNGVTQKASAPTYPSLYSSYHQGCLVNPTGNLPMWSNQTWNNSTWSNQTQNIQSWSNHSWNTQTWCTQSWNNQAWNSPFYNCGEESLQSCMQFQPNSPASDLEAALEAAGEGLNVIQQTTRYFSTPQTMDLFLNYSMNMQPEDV


Columns and labels:
[1] = target: T1, DPPA4 (human (endogenous in NT2)); test: co-IP; endogenous proteins; antibody cross-linked to Protein A beads, incubated with NT2 nuclear lysate with 250 U/mL Benzonase at 4 °C overnight, washed 5 x 5 min in Buffer C100 (0.02% NP-40); western blot; IgG control
[2] = target: PCGF1 (human (endogenous in NT2)) (UniProt Q9BSM1); test: as above
[3] = target: BCOR (human (endogenous in NT2)) (UniProt Q6W2J9); test: as above
[4] = target: FLAG-tagged PCGF1 (human) (UniProt Q9BSM1); test: co-IP; FLAG-tagged PCGF1 exogenously expressed in NT2 cells; M2 anti-FLAG agarose, nuclear lysate in low salt buffer (150 mM NaCl, 50 mM TRIS pH 8.0, 1 mM EDTA, 1% NP40), overnight at 4 °C, elution with 3xFLAG peptide; western blot for DPPA4

Molecule | binding [1] | binding [2] | binding [3] | binding [4]
BCOR (from UniProt Q6W2J9 1-1755) | no binding | binds | – | –
PCGF4 (BMI1) (from UniProt P35226 1-326) | no binding | no binding | no binding | –
DPPA4 (protein, UniProt Q7L190 1-304) MLRGSASSTSMEKAKGKEWTSTEKSREEDQQASNQPNSIALPGTSAKRTKEKMSIKGSKVLCPKKKAEHTDNPRPQKKIPIPPLPSKLPPVNLIHRDILRAWCQQLKLSSKGQKLDAYKRLCAFAYPNQKDFPSTAKEAKIRKSLQKKLKVEKGETSLQSSETHPPEVALPPVGEPPALENSTALLEGVNTVVVTTSAPEALLASWARISARARTPEAVESPQEASGVRWCVVHGKSLPADTDGWVHLQFHAGQAWVPEKQEGRVSALFLLPASNFPPPHLEDNMLCPKCVHRNKVLIKSLQWE | – | binds | no binding | binds

Further lines, results first:

binding [1] | binding [2] | binding [3] | binding [4] | Molecule
– | binds | – | – | NANOG (from UniProt Q9H9S0 1-305)
– | binds | – | – | RYBP (protein, UniProt Q8N488 1-228) MTMGDKKSPTRPKRQAKPAADEGFWDCSVCTFRNSAEAFKCSICDVRKGTSTRKPRINSQLVAQQVAQQYATPPPPKKEKKEKVEKQDKEKPEKDKEISPSVTKKNTNKKTKPKSDILKDPPSEANSIQSANATTKTSETNHTSRPRLKNVDRSTAQQLAVTVGNVTVIITDFKEKTRSSSTSSSTVTSSAGSEQQNQSSSGSESTDKGSSRSSTPKGDMSAVNDESF
